Reference: PubChem BioAssay AID588342 (National Center for Advancing Translational Sciences (NCATS), 2011)
The whole screen tested about 360,000 compounds, of which about 25,000 (6.9%) were called active. The inconclusive results got no clear call from the source; some entries with a clear call stand among them for comparison. Calls follow the shape of the dose curve; as a rule, active = well fitted inhibition curve with a large enough effect; inconclusive = small, poorly fitted or top-dose-only effect; inactive = flat fitted curve, though single readings scatter. Potencies beside an inconclusive call are fits to weak or partial responses and may not hold up.

Molecular target: Luciferin 4-monooxygenase (Photinus pyralis) (UniProt P08659)
Chain of UniProt P08659 (P08659 whole entry, looked up): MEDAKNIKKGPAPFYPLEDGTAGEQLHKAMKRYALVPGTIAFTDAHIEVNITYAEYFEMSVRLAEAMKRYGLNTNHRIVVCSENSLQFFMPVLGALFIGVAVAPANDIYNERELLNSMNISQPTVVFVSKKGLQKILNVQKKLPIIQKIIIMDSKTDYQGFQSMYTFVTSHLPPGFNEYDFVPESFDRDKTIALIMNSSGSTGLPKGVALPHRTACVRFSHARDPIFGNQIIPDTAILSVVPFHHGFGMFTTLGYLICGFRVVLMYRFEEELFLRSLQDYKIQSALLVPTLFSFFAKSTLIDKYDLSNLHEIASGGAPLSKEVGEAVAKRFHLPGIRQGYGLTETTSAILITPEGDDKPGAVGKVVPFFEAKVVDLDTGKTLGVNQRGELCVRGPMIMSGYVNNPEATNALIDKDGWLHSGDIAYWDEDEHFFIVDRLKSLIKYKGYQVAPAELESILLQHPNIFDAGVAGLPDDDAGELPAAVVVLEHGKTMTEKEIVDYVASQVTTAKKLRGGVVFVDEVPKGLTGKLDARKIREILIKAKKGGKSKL
Assay: qHTS profiling assay for firefly luciferase inhibitor/activator using purifed enzyme and Km concentrations of substrates (counterscreen for miR-21 project); also: nearly all actives have a fitted effect of over 55% in size;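 as to activity change, negative = inhibition: plate controls were vehicle for no effect and reference inhibitor for full effect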
Details: purified FLuc, luminescence inhibition; activity change, negative = inhibition: at 57.5 µM (top of the series)
Method in brief: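 Purified P. pyralis luciferase, 10 nM final, with Km-level 10 uM D-luciferin and 10 uM ATP in 50 mM Tris acetate pH 7.5, 10 mM Mg acetate, 0.01% Tween-20, 0.05% BSA; 6-point qHTS titration about 60 µM downward; luminescence read.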
Potency is read from the fitted curve at half-maximal effect; tags tell the direction and shape of the fitted curve.

Question: `O=c1c2c(nc3nc(NCc4cccc5ccccc45)[nH]n13)CCC2` was tested. Which Potency did it give?
Answer: inconclusive: 15.1 µM [inhibitor, partial curve]

Question: With `CCOC(=O)c1sc(=S)n2c1[nH]c(=O)c1ccc(C(=O)OC)cc12` as the compound, how does the Potency read?
Answer: inconclusive: 13.5 µM [inhibitor, partial curve]

Question: With `Cc1ccc(S(=O)(=O)N/N=C/c2cccn2-c2ccc(Cl)cc2)cc1` as the compound, how does the Potency read?
Answer: active: 0.536 µM

Question: How did the Potency turn out when `COc1ccccc1C(=O)Nc1ccc(-c2nnc(SCC(=O)O)n2C)cc1` was run?
Answer: inconclusive: 37.9 µM [inhibitor, partial curve, poor fit]

Question: How did the “activity change, negative = inhibition” value turn out when `COc1cc(OC)cc(C(=O)NCC(=O)N2CCCCCCC2)c1` was run?
Answer: inactive: 1.74%

Question: For `CC(C)N(CCNC(=O)c1ccc(CS(=O)(=O)c2c(Cl)cccc2Cl)o1)Cc1ccccc1`, which “activity change, negative = inhibition” value is on record?
Answer: inactive: 4.03%

Question: How did the Potency turn out when `CCc1cc(C(=O)Nc2cnn(Cc3ccc(F)cc3)c2)no1` was run?
Answer: inconclusive: 23.9 µM [inhibitor, partial curve, poor fit]

Question: `Cc1ccc(-c2noc(C3CCCN(S(=O)(=O)c4ccc5ccccc5c4)C3)n2)o1` (stereo unspecified) was tested. Which Potency did it give?
Answer: inconclusive: 37.9 µM [inhibitor, partial curve, poor fit]

Question: Which Potency does the source give for `CCc1noc(C)c1C(=O)Nc1nc2ccc(F)cc2s1` here?
Answer: active: 16.9 µM

Question: How did the Potency turn out when `Cn1c(N)c(C(=O)COC(=O)CNS(=O)(=O)c2cccc(Cl)c2)c(=O)n(C)c1=O` was run?
Answer: inconclusive: 23.9 µM [inhibitor, single point]

Question: Which “activity change, negative = inhibition” value does the source give for `CC(C)(C)OC(=O)N[C@H](C(=O)OC(C)(C)C)c1ccc2ccccc2c1` here?
Answer: inactive: 1.72%

Question: `O=C(CNC(=O)c1ccc(Cl)cc1Cl)NCC1CCCO1` (stereo unspecified) was tested. Which Potency did it give?
Answer: active: 23.9 µM

Question: Which “activity change, negative = inhibition” value does the source give for `O=C(Cn1c(-c2cccs2)cc2cc(Cl)ccc21)NCc1ccccc1` here?
Answer: inactive: -1.11%

Question: `CCc1cccc(NC(=O)C2CCCN2S(=O)(=O)c2ccccc2C(F)(F)F)c1` (stereo unspecified) was tested. Which “activity change, negative = inhibition” value did it give?
Answer: inactive: 4.25%

Question: How did the Potency turn out when `CCCSc1nc(=O)c2c(n1C)NC(=O)CC2c1cccc(F)c1F` (stereo unspecified) was run?
Answer: inconclusive: 23.9 µM [inhibitor, partial curve, poor fit]

Question: How did the Potency turn out when `CC(C)=CC(=O)Nc1nnc(-c2ccccc2)s1` was run?
Answer: inconclusive: 1.35 µM [inhibitor, full curve]

Question: For `Cc1sc(NC(=O)CN(C(=O)c2ccccc2F)C2CCCC2)c(C(N)=O)c1C`, which “activity change, negative = inhibition” value is on record?
Answer: inactive: 1.14%

Question: With `CCOC(=O)NC1=NCC(C)S1` (stereo unspecified) as the compound, how does the “activity change, negative = inhibition” value read?
Answer: inactive: 2.4%

Question: How did the Potency turn out when `CCc1cc(C=NC2CCCCC2)c(O)s1` was run?
Answer: inconclusive: 15.1 µM [inhibitor, partial curve, poor fit]

Question: Which Potency does the source give for `O=C(CNC(=O)c1ccccn1)N/N=C/c1ccccc1` here?
Answer: inconclusive: 21.3 µM [inhibitor, partial curve, poor fit]

Question: With `Cc1cc(OC(C)C(=O)NCc2ccccn2)c2c(C)c(C)c(=O)oc2c1` (stereo unspecified) as the compound, how does the “activity change, negative = inhibition” value read?
Answer: inactive: 2.38%

Question: For `Cc1c(Cl)cccc1NC(=O)Nc1cc(C(C)(C)C)on1`, which Potency is on record?
Answer: inconclusive: 37.9 µM [inhibitor, single point]

Question: `N/C(CS(=O)(=O)c1ccccn1)=N\OC(=O)c1ccccc1Cl` was tested. Which Potency did it give?
Answer: inconclusive: 19 µM [inhibitor, single point]

Question: For `CSc1nnc(NC(=O)c2cccc(S(=O)(=O)N3CCOCC3)c2)s1`, which Potency is on record?
Answer: inconclusive: 23.9 µM [inhibitor, single point]

Question: Which “activity change, negative = inhibition” value does the source give for `CCOC(=O)Cc1csc(NC(=O)CSc2nccn2C)n1` here?
Answer: inactive: -1.86%

Question: Which Potency does the source give for `O=C(CCC1CCCN(C(=O)c2ccc3c(c2)OCCO3)C1)NCc1ccccc1F` (stereo unspecified) here?
Answer: active: 16.9 µM

Question: For `O=C1c2ccccc2CCC12N=NCC2c1ccc(Br)cc1` (stereo unspecified), which Potency is on record?
Answer: inconclusive: 21.3 µM [inhibitor, single point]

Question: For `CN(C(=O)CCN1C(=O)/C(=C/c2ccccc2F)SC1=S)C1CCS(=O)(=O)C1` (stereo unspecified), which Potency is on record?
Answer: active: 26.9 µM

Question: With `NS(=O)(=O)c1ccc(NC(=O)CCC(=O)c2cccs2)cc1` as the compound, how does the “activity change, negative = inhibition” value read?
Answer: inactive: -4.64%

Question: Which “activity change, negative = inhibition” value does the source give for `Cc1ccn(CCC(=O)N2c3ccccc3CC2C)n1` (stereo unspecified) here?
Answer: inactive: 0.985%

Question: For `CCc1ccc(CN(C)C(=O)c2cc(COc3ccc(OC)cc3Cl)on2)nc1`, which Potency is on record?
Answer: active: 15.1 µM

Question: How did the “activity change, negative = inhibition” value turn out when `CN(Cc1nc(Cc2ccccc2F)no1)[C@@H]1CS(=O)(=O)C[C@H]1O` was run?
Answer: inactive: -3.36%

Question: For `Cc1cccc(Nc2nc(N)nc(CN3CCN(C)CC3)n2)c1`, which “activity change, negative = inhibition” value is on record?
Answer: inactive: 0.164%

Question: Which Potency does the source give for `O=C(CC1Nc2ccccc2NC1=O)Nc1ccccc1` (stereo unspecified) here?
Answer: inconclusive: 21.3 µM [inhibitor, partial curve, poor fit]

Question: With `COc1cc(NCCC(=O)c2cccs2)c(OC)cc1Cl` as the compound, how does the “activity change, negative = inhibition” value read?
Answer: inactive: -0.0841%

Question: For `CN(C)c1ccc(-c2nc(-c3ccccn3)no2)cc1[N+](=O)[O-]`, which Potency is on record?
Answer: inconclusive: 16.9 µM [inhibitor, partial curve]

Question: How did the “activity change, negative = inhibition” value turn out when `CCOC(=O)N1CCN(C2CCCN(C(=O)c3cccc(N(C)C)c3)C2)CC1` (stereo unspecified) was run?
Answer: inactive: 0.917%

Question: `O=C(Nc1ccc2c(c1)OCO2)c1cccc(S(=O)(=O)N2CCCC2)c1` was tested. Which Potency did it give?
Answer: inconclusive: 16.9 µM [inhibitor, partial curve, poor fit]

Question: For `Cn1c(=NC(=O)CN2C(=O)C3CC=CCC3C2=O)sc2ccccc21` (stereo unspecified), which Potency is on record?
Answer: inconclusive: 33.8 µM [inhibitor, partial curve, poor fit]

Question: Which Potency does the source give for `O=C(Nc1ncc([N+](=O)[O-])s1)c1ccco1` here?
Answer: active: 10.7 µM

Question: Which “activity change, negative = inhibition” value does the source give for `CNC(=O)n1cc(C)c(-c2cccs2)n1` here?
Answer: inactive: -10.3%

Question: For `COc1ccc(OCC(=O)Nc2cccc(-c3nc4ccccc4[nH]3)c2)cc1`, which Potency is on record?
Answer: active: 9.53 µM

Question: How did the “activity change, negative = inhibition” value turn out when `Cc1nnc(SCC(=O)Nc2sccc2C(N)=O)s1` was run?
Answer: inactive: -4.76%

Question: For `COc1ccc(-n2cc(CN(C)Cc3n[nH]c(=O)[nH]3)c(-c3cccc(F)c3)n2)cc1`, which Potency is on record?
Answer: inconclusive: 21.3 µM [inhibitor, single point]

Question: For `COc1cc(-c2noc(C)c2/C=C/c2ccc(C(=O)O)cc2)cc(OC)c1OC`, which “activity change, negative = inhibition” value is on record?
Answer: inactive: -6.18%

Question: With `O=C(COc1ccc(Br)cc1)N1CCc2ccccc2C1` as the compound, how does the Potency read?
Answer: inconclusive: 33.8 µM [inhibitor, partial curve, poor fit]

Question: With `Cc1cc(C(=O)COC(=O)CCc2nc3ccccc3c(=O)[nH]2)c(C)n1CC1CCCO1` (stereo unspecified) as the compound, how does the Potency read?
Answer: inconclusive: 26.9 µM [inhibitor, single point]

Question: `CCc1ccc(OCC(=O)NNC(=S)NC(=O)C2CC2)c(Br)c1` was tested. Which Potency did it give?
Answer: active: 9.53 µM

Question: With `CC1CCc2sc(C(=O)N/N=C/c3ccc(O)cc3)cc2C1` (stereo unspecified) as the compound, how does the Potency read?
Answer: active: 2.13 µM

Question: Which “activity change, negative = inhibition” value does the source give for `CCOC(=O)c1[nH]c2ccc(OCC)cc2c1NC(=O)CN1CCCC(C)C1` (stereo unspecified) here?
Answer: inactive: -0.568%

Question: How did the “activity change, negative = inhibition” value turn out when `Cc1cc(C)cc(N2C(=O)CS(=O)(=O)C23C(=O)N(Cc2ccc(F)cc2)c2ccc(C)cc23)c1` (stereo unspecified) was run?
Answer: inactive: 2.97%

Question: `O=C1C2C3C=CC(C4CC34)C2C(=O)N1CCc1ccccc1` (stereo unspecified) was tested. Which Potency did it give?
Answer: inconclusive: 33.8 µM [inhibitor, partial curve, poor fit]

Question: With `C=CCn1c(COc2ccccc2OC)nc2ccccc21` as the compound, how does the Potency read?
Answer: inconclusive: 16.9 µM [inhibitor, partial curve]

Question: Which Potency does the source give for `Cc1ccc(CCNC(=O)NCc2noc3ccc(C)cc23)cc1` here?
Answer: inconclusive: 10.7 µM [inhibitor, partial curve, poor fit]

Question: For `O=C(CSc1nnnn1-c1ccccc1)c1ccco1`, which Potency is on record?
Answer: active: 16.9 µM

Question: Which Potency does the source give for `O=C(COC(=O)c1ccc(Cl)s1)c1cc2ccccc2o1` here?
Answer: active: 23.9 µM

Question: `CN(C)S(=O)(=O)c1ccc(N2CCCC2)c(C(=O)Nc2nc3ccccc3s2)c1` was tested. Which Potency did it give?
Answer: inconclusive: 21.3 µM [inhibitor, single point]

Question: With `CCc1ccc(NC(=O)N(C2CCC(C)CC2)C2CCN(C(C)=O)CC2)cc1` (stereo unspecified) as the compound, how does the Potency read?
Answer: inconclusive: 13.5 µM [inhibitor, partial curve, poor fit]

Question: With `Cc1ccc(/C=c2\sc3nc(-c4ccco4)nn3c2=O)o1` as the compound, how does the Potency read?
Answer: inconclusive: 26.9 µM [inhibitor, partial curve, poor fit]

Question: How did the Potency turn out when `COC(=O)c1c(NC(=O)c2ccc(Br)o2)sc(C)c1C` was run?
Answer: inconclusive: 23.9 µM [inhibitor, partial curve, poor fit]

Question: With `O=C(Nc1cccc(C(F)(F)F)c1)NC1CCCCC1` as the compound, how does the Potency read?
Answer: inconclusive: 23.9 µM [inhibitor, partial curve]

Question: Which Potency does the source give for `CCOC(=O)c1nc(-c2ccccc2)sc1C(C)=O` here?
Answer: inconclusive: 16.9 µM [inhibitor, partial curve]

Question: `Cc1ccc(-n2c(SC3CCOC3=O)nc3ccccc3c2=O)cc1` (stereo unspecified) was tested. Which “activity change, negative = inhibition” value did it give?
Answer: inactive: -0.301%

Question: `Cc1ccc(C2=N/C(=C\N(C)C)C(=O)O2)cc1` was tested. Which Potency did it give?
Answer: active: 15.1 µM

Question: Which Potency does the source give for `CC(C)(C)SCCNC(=O)c1ccc(CN2CCc3ccccc3C2)cc1` here?
Answer: inconclusive: 19 µM [inhibitor, partial curve, poor fit]

Question: For `Cc1nc(C#N)c(N/N=C/c2cccc(Cl)c2)o1`, which Potency is on record?
Answer: active: 4.78 µM

Question: `Cn1cnc2cc(NCc3ccccc3O)ccc21` was tested. Which Potency did it give?
Answer: inconclusive: 23.9 µM [inhibitor, partial curve]

Question: How did the Potency turn out when `COc1cccc(C(=O)NCc2ccc3c(c2)cc(C)n3C)c1` was run?
Answer: inconclusive: 37.9 µM [inhibitor, partial curve, poor fit]

Question: Which Potency does the source give for `CC(C)c1ccc(/C=N/NC(=O)c2c(Cl)cnn2C)cc1` here?
Answer: active: 0.675 µM

Question: How did the Potency turn out when `COc1cccc(/C=C2/SC(=S)N(CCCC(=O)Nc3ccc(O)cc3)C2=O)c1` was run?
Answer: inconclusive: 16.9 µM [inhibitor, partial curve, poor fit]

Question: For `COc1ccc(NC(=O)c2cccc(N3CCCS3(=O)=O)c2)cc1`, which Potency is on record?
Answer: inconclusive: 21.3 µM [inhibitor, single point]

Question: Which Potency does the source give for `CCCc1[nH]n(-c2nc3ccccc3s2)c(=O)c1C=NCCN1CCOCC1` here?
Answer: active: 16.9 µM

Question: Which Potency does the source give for `O=C(O)Cc1ccc(NC(=O)COc2ccc3ccccc3c2)cc1` here?
Answer: active: 19 µM

Question: Which Potency does the source give for `O=C(c1ccc2c(c1)OCO2)C1CCCN(C(=O)c2cnn(Cc3ccccc3)c2)C1` (stereo unspecified) here?
Answer: inconclusive: 21.3 µM [inhibitor, partial curve, poor fit]

Question: For `O=C1Nc2cc(Cl)c(Cl)cc2N(O)N1c1ccccc1`, which “activity change, negative = inhibition” value is on record?
Answer: inactive: -16.4%

Question: `COc1ccc(Br)cc1Cn1nnc(C(=O)Nc2ccc3c(c2)OCCO3)c1N` was tested. Which Potency did it give?
Answer: inconclusive: 21.3 µM [inhibitor, single point]
